The supplement of paper PMC11417369
± gives the standard deviation of the averaged measurements. Some of the results follow.

test system: PfAP2-I AP2 domain 3 (GST-tagged); test: gcPBM binding intensity (ln(normalized median fluorescence intensity)); higher = stronger DNA binding
Method in brief: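 Probes on an Agilent 4 × 180k array were primer-extended, double-stranded and 36 bp long, taken from intergenic genomic regions, with negative controls added. GST-tagged P. falciparum DNA-binding domains from E. coli, about 25 μg on average, were applied to the array for 1 h in 1× PBS containing 1% milk, 0.2 mg/ml BSA, 0.5% salmon testes DNA and 0.03% Triton X-100. Binding intensity, obtained after Alexa488 anti-GST antibody detection and a 488 nm scan, is the highest Masliner-normalised natural-log median intensity across replicate spots of either probe orientation.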

Sequence | gcPBM binding intensity (ln)
TTATGCAATTTGTATTGTACATTCATGATATTAATA [XGTACX_site5070] | 7.6 ± 0.51
TAATAAATCAATAAATGTACATATATGTATAATTTC [XGTACX_site980] | 7.75 ± 0.43
AATTATAAAAAAAAAAAAAAAAAAAAAAACTAAATG [CACACA_negctrl_site1379] | 7.51 ± 0.48
ATAATGTATTTATATATATATATATATTTTAATAAA [CACACA_negctrl_site460] | 7.57 ± 0.42
TTTAAAAATATATTCACACAGAAATAGTAAAAGTTA [CACACA_site4587] | 7.67 ± 0.68
TATATATAGAAACACACACACACACCCAAGCGTAGC [CACACA_site63] | 8.06 ± 0.37
ATTATAACTAAATAAATGATATATAATATTTTATTT [XGTACX_negctrl_site234] | 7.39 ± 0.28
ATTTATTAATTACCATGTATAAAAAATTATATAATA [CACACA_negctrl_site581] | 7.46 ± 0.52
GTCGTATAATTTTCAGTGCAATATTTGAATAAATGG [GTGCAC_site9404] | 10.3 ± 0.23
AGCAACTCAATATATATAAGAATTGTAATATAATAT [GTGCAC_negctrl_site429] | 7.5 ± 0.49
ATACAATACAAAAACACACACAAAAAAAGAAAAGGA [CACACA_site2156] | 7.98 ± 0.82
ATATATTTATATATTTGTACATATAATATCTTCTTT [XGTACX_site8504] | 7.49 ± 0.49
GATTTATACAAATATGTACACACTAAATATATATTA [CACACA_site455] | 8.19 ± 0.28
TTTATTTTATTTTCATGTACAAAAGGGGAATAATAA [XGTACX_site2704] | 8.28 ± 0.3
ATATGTATGTATTTATTATTGTGCATTGTATTTATA [CACACA_negctrl_site664] | 9.36 ± 0.38
TATTTATCTTTACGCACACACTTGCATGTACAAAAG [CACACA_site4753] | 9.47 ± 0.042
AATACCCATATCTTCACACATACATAATAAATTATA [CACACA_site5367] | 7.92 ± 0.73
TTTATTTATGTGTGGGTGCATATACGTATGATGTAT | 11 ± 0.72
TTTGAATATTCATATGCACACAAATTAATATACATA [CACACA_site8040] | 8.63 ± 0.099
GTATAATATTTTAATGCACACACACTAATAAAAAAA [CACACA_site8939] | 11.1 ± 0.76
TTTGGATAAAAAATATGTACACACATATAGATATCT [XGTACX_site5660] | 7.71 ± 0.54
TTGACAGGAACGTTGGTGCACGTACTGTTTTTCTTT [GTGCAC_site9389] | 10.5 ± 0.12
AAGTATAAATAAAGGCGTACACATGTAAATTATATT [XGTACX_site126] | 8.29 ± 0.35

Sequence | gcPBM binding intensity (ln)
AAAATAATTCATGTTGGTAATAAGACTCGAGGTGAA [CACACA_negctrl_site1054] | 7.89 ± 0.56
TAATAGATGTTATGAAGTACTAAATATTAAATATAA [XGTACX_site5717] | 7.81 ± 0.45
TTTATTTTAAATGGGTGTACTCATTCCTTATGGAAG [XGTACX_site1397] | 7.915 ± 0.078
TATTATAATATATTTGTGCACATAATATCTCCGCTA [GTGCAC_site9799] | 10.91 ± 0.049
AGTAGTCTGGAGAAAAGTACATAGTATCTGATAACC [XGTACX_site2028] | 7.95 ± 0.63
TGCTTATATATAAATTGTACTGAAAGAATAAAATAA [XGTACX_site4025] | 7.79 ± 0.5
AAAAAGATAAAATATACATGCATATATAATATACAT [TGCATGCA_site488] | 7.49 ± 0.51
AAAAAAAAAAAATACACACACATATTTATTTATATA [CACACA_site7114] | 7.69 ± 0.2
AAAAAAGGTAAAAAAAGTACAAAAAAAAAATTAAAA [XGTACX_site6993] | 7.78 ± 0.43
CTATATGTTAAATTCTCACACATTATTACAATTTAA [CACACA_site5979] | 7.88 ± 0.49
ACGTATTTTTAAATATATGAATTATGTAACTTGTGA [CACACA_negctrl_site1446] | 7.6 ± 0.45
GAATATGTGATATTTTGTACATAAAAATAATATATA [XGTACX_site6398] | 7.65 ± 0.33
TATACTATTTAAATGTGTACTAAAAGAATATATTAT [XGTACX_site5238] | 8.1 ± 0.12
CATATGTATATGACTACACACAAGGGTGTACCTATA [CACACA_site6670] | 7.62 ± 0.4
TTAAAAATAAATTCATGTACATAATATATATATATA [XGTACX_site7908] | 9.1 ± 0.21
TATATACAACGTTAAGCACACACAAAAAAAATTTAA [CACACA_site9013] | 8.59 ± 0.13
AAAACATAAATACATACACACATAATATAGATTAAT [CACACA_site6205] | 7.62 ± 0.59
TTGCATTTATTATACACACACAAAAAAATATTTATA [CACACA_site6252] | 7.96 ± 0.31
TGTTCATTTTTAAAATGTACATATATGTTGTTCCAT [XGTACX_site8444] | 7.67 ± 0.64
ATTTCTCAATCTTAATGTACAAAAAAAAGGAAAAAG [XGTACX_site1210] | 7.82 ± 0.57
AGCATATTATCATATTGTACATATTATAATATATAT [XGTACX_site3907] | 7.87 ± 0.38
ATATGTTTTGTTTACGTGCACTGCTTTGTTTATATA [GTGCAC_site9622] | 10.8 ± 0.11
